Experimental data from PubChem BioAssay AID1645887 (National Center for Advancing Translational Sciences (NCATS), 2021).
“And” between values parts separate entries of the source, which are not always exact repeats. Equal entries are not always repeated. Hit rate of the full screen: of about 16,000 compounds, about 40 (0.2%) were called active. Roughly 1% stayed inconclusive and do not appear here. The call rests on the fitted dose curve; in most records, active means well fitted activation curve with a large enough effect; inconclusive means small, poorly fitted or top-dose-only effect, or another doubt; inactive means no such curve, though single readings can be large or run the other way. The list shows a part of the results.

biological target: Rap guanine nucleotide exchange factor 4 (Homo sapiens) (UniProt Q8WZA2); experiment: Validation qHTS for agonist of cAMP-regulated guanine nucleotide exchange factor 4 (EPAC2); settings: EPAC2 Rap1B BODIPY-GDP exchange, fluorescence; activation: stronger effect = higher value;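 further: exchange makes BODIPY-GDP fluorescence drop when released from Rap1B; series mostly up to about 150 µM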
UniProt Q8WZA2, sequence (Q8WZA2 whole entry, looked up): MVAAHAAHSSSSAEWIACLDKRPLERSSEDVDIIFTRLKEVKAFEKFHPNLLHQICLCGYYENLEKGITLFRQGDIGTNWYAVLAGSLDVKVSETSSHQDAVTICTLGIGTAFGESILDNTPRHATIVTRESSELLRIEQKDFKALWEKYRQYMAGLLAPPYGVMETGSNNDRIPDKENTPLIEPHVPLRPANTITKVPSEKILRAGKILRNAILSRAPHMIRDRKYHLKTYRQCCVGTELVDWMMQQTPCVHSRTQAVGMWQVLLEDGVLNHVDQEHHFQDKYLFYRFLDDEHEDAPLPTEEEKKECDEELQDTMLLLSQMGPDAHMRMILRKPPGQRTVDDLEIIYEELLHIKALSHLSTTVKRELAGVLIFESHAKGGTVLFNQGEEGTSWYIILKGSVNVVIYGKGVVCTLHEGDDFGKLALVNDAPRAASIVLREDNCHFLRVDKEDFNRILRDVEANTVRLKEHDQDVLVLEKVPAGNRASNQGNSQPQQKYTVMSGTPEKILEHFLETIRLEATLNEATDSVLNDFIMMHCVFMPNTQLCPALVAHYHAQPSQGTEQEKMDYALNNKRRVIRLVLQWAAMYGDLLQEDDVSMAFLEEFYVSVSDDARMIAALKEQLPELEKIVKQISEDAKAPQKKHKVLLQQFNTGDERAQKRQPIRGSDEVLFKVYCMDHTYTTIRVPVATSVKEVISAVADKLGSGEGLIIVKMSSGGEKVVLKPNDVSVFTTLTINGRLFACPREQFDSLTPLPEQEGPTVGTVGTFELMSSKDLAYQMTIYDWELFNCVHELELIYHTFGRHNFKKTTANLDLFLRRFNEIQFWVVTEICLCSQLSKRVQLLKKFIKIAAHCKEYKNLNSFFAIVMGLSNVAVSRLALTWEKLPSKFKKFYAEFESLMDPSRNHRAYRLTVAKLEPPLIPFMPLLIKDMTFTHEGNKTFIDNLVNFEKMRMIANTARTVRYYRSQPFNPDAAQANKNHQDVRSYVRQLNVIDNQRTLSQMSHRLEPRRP
Procedure, shortened: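 Fluorescent exchange assay: 100 nM EPAC2 with 250 nM RAP1B-BODIPY-GDP and 50 uM GDP; compound added, 5 min at room temperature, then read (ex 480/em 540 nm) every 5 min for 30 min. Normalized to 6.5 mM cAMP agonist control.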
On the % scale 0 is the no-effect control and ±100 the full control effect.

activation, inactive:
CC(C)CN1CC[C@@]2(CCCN(S(=O)(=O)c3ccccc3)C2)C1 -25.7%
Cn1cccc1C(=O)N1CCC2(CCN(Cc3ccccc3)CC2)CC1 -5.84%
O=C(Nc1nccs1)[C@@H]1CC=C[C@@H]2CCN(C3CCCCC3)C(=O)[C@@H]21 -12.8%
COCc1c(C(=O)NC2CCCCC2)cnn1-c1nccc(-c2cc(C)sc2C)n1 -10.2%
Clc1cccc2c1CN(C1=NCCN1)C2 -19.8%
COc1ccc(CCC(=O)O)cc1 -9.57%
COc1ccc(/C=C/C(=O)c2ccc(O)cc2O)cc1OC 1%
CCN(CC)CCCCCCCCOC(=O)c1cc(OC)c(OC)c(OC)c1 -0.934% and -14.3% and -38.6%
Cc1ccc(-c2ccc(C(=O)N3CCc4nnc(CNC(=O)c5ccccc5)n4CC3)cc2)cc1 -7.59%
Cc1c(C(=O)N2CCCCC2)sc2ncnc(NCCN(C)C)c12 -0.49%
CS(=O)(=O)N1CCC2(CCN(C(c3ccccc3)c3ccccc3)CC2)CC1 -23.6%
CCCSc1ccc2nc(NC(=O)OC)[nH]c2c1 -11.7% and -20.3%
O=C(c1cc(C(F)(F)F)cc(C(F)(F)F)c1)N1CCC2(CCCN(c3ccncc3)C2)CC1 -7.92%
O=[N+]([O-])c1cccc2[nH]cnc12 2.27%
COc1ccc(-c2oc3cc(OC)c(OC(C)=O)c(OC)c3c(=O)c2OC)cc1OC(C)=O -9.51%
CC(=O)O[C@H]1CC[C@@]2(C)C(=CC[C@H]3[C@@H]4CC[C@H](C(C)=O)[C@@]4(C)CC[C@@H]32)C1 -0.231%
Nc1ncnc(Nc2ccccc2)n1 -9.08%
Cn1c(=O)[nH]c2nc[nH]c2c1=O -16.9%
CN1CCN(c2ncc3nc(-c4ccccc4)c(=O)n(-c4ccccc4)c3n2)CC1 -3.62%
CCC1(C2CCN(Cc3ccccn3)CC2)NC(=O)N(CC2COc3ccccc3O2)C1=O (stereo unspecified) -2.34%
Cc1cnc2ccccc2c1/C=C/c1ccc(N(C)C)cc1 20.8%
COc1cccc(-c2ccc3ncnc(NCc4ccccc4)c3c2)c1 -22.3%
O=C(NCc1nnc2n1CCN(Cc1ccc(C(F)(F)F)cc1)CC2)c1cccc(F)c1 -15.3%
CCNc1ncc2nc(-c3cccs3)c(=O)n(CCc3ccccc3)c2n1 -14%
C[N+]1(CC(=O)c2ccc(Oc3ccccc3)cc2)CCOCC1 -33.3%
CC(=O)NCCNc1nc(-c2ccc(C(=O)N(C)C)cc2)nc2ccccc12 -10.5%
COc1ccc2c(=O)cc(-c3ccccc3)oc2c1O -5.65%
CCC[C@@]1(CCc2ccccc2)CC(O)=C([C@H](CC)c2cccc(NS(=O)(=O)c3ccc(C(F)(F)F)cn3)c2)C(=O)O1 19.4%
Nc1ncnc2c1[nH]c(=O)n2C1OC(CO)C(O)C1O (stereo unspecified) -14.5%
CCCCC(=O)NCCc1c(Cc2ccccc2)[nH]c2ccccc12 -3.41% and 8.72%
C[C@@]12CCC3c4ccc(O)cc4CCC3C1CCC2O (stereo partly specified) -12.6%
NC[C@@H]1O[C@@H](O[C@H]2[C@@H](O)[C@H](O[C@@H]3[C@@H](O)[C@@H](N)C[C@H](N)[C@H]3O[C@H]3O[C@H](CN)[C@@H](O)[C@@H](O)[C@H]3N)O[C@H]2CO)[C@H](N)[C@@H](O)[C@@H]1O -5.42%
CC(=O)Nc1ccccc1-c1nc(CNC(=O)c2ccc(C)cc2)c(C)o1 4.05%
CC(NC(=O)C1CC1)c1nnc2n1CCN(Cc1cccc(F)c1F)CC2 (stereo unspecified) 5.64%
Cc1ncc2c(c1CNC(=O)c1ccc3c(c1)OCO3)CCN(C(=O)/C=C/c1ccccc1Cl)C2 5.09%
COc1ccc(-c2cc(=O)c3ccccc3o2)cc1OC -8.52%
CC(=O)OCC(=O)[C@H]1CC[C@H]2[C@@H]3CCC4=CC(=O)CC[C@]4(C)[C@H]3CC[C@]12C -0.862%
c1ccc(-c2onc(-c3ccco3)c2-c2ccc3[nH]ccc3c2)cc1 4.72%
COc1ccc(NC(=O)C2CC23CCN(Cc2cccc4ncccc24)CC3)cc1Cl (stereo unspecified) -19.9%
COc1cc(O)ccc1C(C)=O -5.92%
O=c1c(-c2cc(F)cc(F)c2)nc2cnc(N3CCOCC3)nc2n1Cc1ccc(F)cc1 -8.25%
C#CCn1c(=O)c2c(ncn2C)n(C)c1=O -2.92% and -26%
CCOC(C)OCC -6.93%
COC(=O)c1cccc(-c2cc(Cl)c3c(c2)CC(CNC(=O)c2cccnc2)O3)c1 (stereo unspecified) -7.16%
COc1cccc(-c2cc(NCc3cccs3)ncn2)c1 -11.9%
COc1ncc2nc(-c3ccc(Cl)cc3)c(=O)n(C[C@H]3CCCO3)c2n1 -15.4%
CC(CN(C)C)CN1c2ccccc2Sc2ccccc21 (stereo unspecified) -7.5%
CC1(C)[C@@H](OC(=O)CCC(=O)O)CC[C@]2(C)[C@H]3C(=O)C=C4[C@@H]5C[C@@](C)(C(=O)O)CC[C@]5(C)CC[C@@]4(C)[C@]3(C)CC[C@@H]12 -8.16%
COCCn1c(=O)c(C)nc2cnc(Oc3ccccc3)nc21 -7.54%
CC(=O)N1CCC2(CC1)CN(C(=O)Nc1cccc(C#N)c1)C2 -4.19%
O=c1c(-c2cc(F)cc(F)c2)nc2cnc(N3CCOCC3)nc2n1C[C@H]1CCCO1 -1.24%
N#C/C(=C\c1ccc(O)c(O)c1)C(=O)NCc1ccccc1 -21.2% and -5.58% and -30.5%
O=C(/C=C/c1ccccc1)NCCO -10.9%
N#CC(=C(\N)Sc1ccccc1N)/C(C#N)=C(/N)Sc1ccccc1N -1.32%
CN(C)c1ccnc(-c2cccc(NS(C)(=O)=O)c2)n1 -8.46%
COc1ccc(-n2c(=O)c(-c3cn(C)c4ccccc34)nc3cnc(N4CCNCC4)nc32)cc1 -25.8%
C#C[C@]1(O)CC[C@H]2[C@@H]3CCC4=CC(=O)CC[C@@H]4[C@H]3CC[C@@]21CC -0.883%
CC(C)CCCC(C)NC(C)C (stereo unspecified) 0.872%
Cc1cc(C)c(S(=O)(=O)Nc2cccc(C(F)(F)F)c2)c(C)c1 -35.3%
COc1ccc2[nH]cc(CCNc3cc(-c4ccccc4Cl)ncn3)c2c1 -13.1%
CN1C2CCC1CC(OC(=O)C(O)c1ccccc1)C2 (stereo unspecified) 6.43% and -7.04%
O=C(c1ccco1)N1CCC2(CC1)CCN(c1ccccc1)CC2 -4.3%
CCN(CC)CCOCCOC(=O)C(CC)(CC)c1ccccc1 8.54%
O=c1c(-c2ccc(Cl)cc2)nc2cnc(N3CCNCC3)nc2n1Cc1cccs1 17.8%
C=CCN1c2ccccc2C(=O)CS1(=O)=O -31.1%
CCCCC/C=C\C/C=C\C/C=C\C/C=C\CCCC(=O)O -54.4% and -15.4% and -15.1%
CCCN1CCC(=O)N(CCOc2ccccc2)CC1 -11.7%
Nc1ccccc1C(=O)CC(N)C(=O)O (stereo unspecified) -4.02% and 1.77%
CS(=O)(=O)N1CCC[C@@]2(CCN(c3ncccn3)C2)C1 -5.03%
CC(=O)OC1CC2C(C)(C)C(=O)CC[C@]2(C)C2CC[C@]3(C)C(=CC(=O)OC3c3ccoc3)[C@]12C (stereo partly specified) -2.4%
COC(=O)Nc1ccc2[nH]cc(CCNC(C)=O)c2c1 -4.95% and 1.58%
CCC[C@H]1COCCS(=O)(=O)N1Cc1ccc(Br)cc1 -6.88%
CCCOc1ccc(C(=O)OCCN(CC)CC)cc1N 7.29%
Cc1noc(C)c1C(=O)N1CCC2(CC1)CN(Cc1cc(C(F)(F)F)cc(C(F)(F)F)c1)C2 -16.8%
Cn1cccc1C(=O)N1CCC2(CC1)CN(Cc1cc(C(F)(F)F)cc(C(F)(F)F)c1)C2 -30.8%
Nc1nc2c(ncn2CCC(CO)CO)c(=O)[nH]1 -18.8%
COc1ccc2cc(CNCc3ccccc3C(F)(F)F)c(N3CCCC(CO)C3)nc2c1 (stereo unspecified) -7.23%
N#Cc1cccc(-c2ccc3ncnc(N4CCNCC4)c3c2)c1 1.83%
COC1C(O)C(O)C(O)C(O)C1O (stereo unspecified) -11.4%
COCCn1c(=O)c(-c2cc(F)cc(F)c2)nc2cnc(N3CCOCC3)nc21 -5.38%
CSc1ccc(CN2CCOc3ccc(CN4CCCCC4CO)cc3C2)cc1 (stereo unspecified) 0.462%
COC(=O)CC1C(C)(C)C(OC(C)=O)C2[C@H](OC(C)=O)[C@]34O[C@]2(O)[C@]1(C)C3CC[C@]1(C)C4=CC(=O)OC1c1ccoc1 (stereo partly specified) -16.8%
c1cc2c3c(c1)CCCN3CCC2 -18.8%
O=P(O)(O)OC(CO)CO 1.23%
O=C(c1cccc(F)c1)N1CCC[C@@]2(CCN(c3ccccc3)C2)C1 -16.9%
N#Cc1ccc(CN2CCC3(CC2)CCN(C(=O)c2cnccn2)CC3)cc1 -2.21%
